# Reference: the supplement of paper PMC10037445
# Several values for one entry are separate records, joined by “and”; a condition that tells them apart may be missing. Identical values can stand only once. Whole data set: some 2,900 compounds, median “NF-kB SEAP reporter activity, fold change vs agonist alone” near 0.99, cut for the highest 2% near 2.6. This is one part of the list.
# How the values were obtained:
# RAW-Dual [1] = assay: NF-kB SEAP reporter activity, fold change vs agonist alone; cytotoxicity flag (confluency mask): cytotoxic (confluency <70% of control); higher = enhanced NF-kB activity
# Outline: (§1)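 Reporter activity is given as fold change relative to agonist-alone wells. To measure it, 50 nL of library stock was pin-tooled onto RAW-Dual macrophages (50,000 cells/well, DMEM, 384-well plates), a PRR agonist followed 1 h later, and cells stayed at 37 °C, 5% CO2. Twenty hours on, supernatant was assayed for IRF (QuantiLuc luminescence) and NF-κB (QuantiBlue, 620 nm absorbance), and wells under 70% of agonist-control IncuCyte confluency in both mask sets were marked cytotoxic.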
# RAW-Dual [2] = assay: NF-kB SEAP reporter activity, fold change vs agonist alone; cytotoxicity flag (confluency mask): not cytotoxic; higher = enhanced NF-kB activity
# Outline: as §1
# RAW-Dual [3] = assay: NF-kB SEAP reporter activity, fold change vs agonist alone; higher = enhanced NF-kB activity; details: library stock concentration (final ~1000-fold dilution): 10 mM, cytotoxicity flag (confluency mask): not cytotoxic
# Outline: as §1
# [4] = agonist: ODN 1826 (TLR9) 0.5 ug/mL
# [5] = agonist: Pam2CSK4 (TLR2/6) 0.1 ug/mL
# [6] = agonist: Pam3CSK4 (TLR2/1) 0.1 ug/mL
compound,measurement,setting,value
CC(N)c1ccc(C(=O)Nc2ccnc3[nH]ccc23)cc1.Cl.Cl (stereo unspecified) (library stock concentration (final ~1000-fold dilution): 10 mM),NF-kB SEAP reporter activity,RAW-Dual [1]; agonist: LPS (TLR4) 0.1 ug/mL,0.262
same,NF-kB SEAP reporter activity,RAW-Dual [1]; [4],0.309
same,NF-kB SEAP reporter activity,RAW-Dual [1]; [5],0.121
same,NF-kB SEAP reporter activity,RAW-Dual [1]; [6],0.148
CC(C)(C)C1NC(=O)OC2CCCC2OC/C=C/C(F)(F)c2nc3ccccc3nc2OC2CC(C(=O)NC3(C(=O)NS(=O)(=O)C4(C)CC4)CC3C(F)F)N(C2)C1=O (stereo unspecified) (library stock concentration (final ~1000-fold dilution): 10 mM),NF-kB SEAP reporter activity,RAW-Dual [2]; agonist: LPS (TLR4) 0.1 ug/mL,1.29
same,NF-kB SEAP reporter activity,RAW-Dual [2]; [4],2.62
same,NF-kB SEAP reporter activity,RAW-Dual [2]; [5],0.986
same,NF-kB SEAP reporter activity,RAW-Dual [2]; [6],2.09
CC(C)(C)C1NC(=O)OC2CCCC2OC/C=C/C(F)(F)c2nc3ccccc3nc2OC2CC(C(=O)NC3(C(=O)NS(=O)(=O)C4(C)CC4)CC3C(F)F)N(C2)C1=O (stereo unspecified),NF-kB SEAP reporter activity,RAW-Dual [3]; agonist: Imiquimod (TLR7) […],2.27
same,NF-kB SEAP reporter activity,RAW-Dual [3]; agonist: MPLA (TLR4) […],2.15
CC(=O)OC1(C(C)=O)CCC2C3C=C(Cl)C4=CC(=O)C5CC5C4(C)C3CCC21C (stereo unspecified) (library stock concentration (final ~1000-fold dilution): 10 mM),NF-kB SEAP reporter activity,RAW-Dual [2]; agonist: LPS (TLR4) 0.1 ug/mL,1.2
same,NF-kB SEAP reporter activity,RAW-Dual [2]; [4],1.01
same,NF-kB SEAP reporter activity,RAW-Dual [2]; [5],0.777
same,NF-kB SEAP reporter activity,RAW-Dual [2]; [6],1.08
CC(=O)OC1(C(C)=O)CCC2C3C=C(Cl)C4=CC(=O)C5CC5C4(C)C3CCC21C (stereo unspecified),NF-kB SEAP reporter activity,RAW-Dual [3]; agonist: Imiquimod (TLR7) […],1.26
same,NF-kB SEAP reporter activity,RAW-Dual [3]; agonist: MPLA (TLR4) […],1.21
CCCOc1ccc(S(=O)(=O)NCCC2CCCN2C)cc1-c1nc(=O)c2c([nH]1)c(CCC)nn2C (stereo unspecified) (library stock concentration (final ~1000-fold dilution): 10 mM),NF-kB SEAP reporter activity,RAW-Dual [2]; agonist: LPS (TLR4) 0.1 ug/mL,1.02
same,NF-kB SEAP reporter activity,RAW-Dual [2]; [4],0.517
same,NF-kB SEAP reporter activity,RAW-Dual [2]; [5],0.99
same,NF-kB SEAP reporter activity,RAW-Dual [2]; [6],1.14
CCCOc1ccc(S(=O)(=O)NCCC2CCCN2C)cc1-c1nc(=O)c2c([nH]1)c(CCC)nn2C (stereo unspecified),NF-kB SEAP reporter activity,RAW-Dual [3]; agonist: Imiquimod (TLR7) […],1.42
same,NF-kB SEAP reporter activity,RAW-Dual [3]; agonist: MPLA (TLR4) […],1.28
O=C(O)Cc1ccc(-c2ccccc2)cc1 (library stock concentration (final ~1000-fold dilution): 10 mM),NF-kB SEAP reporter activity,RAW-Dual [2]; agonist: LPS (TLR4) 0.1 ug/mL,0.989
same,NF-kB SEAP reporter activity,RAW-Dual [2]; [4],1.01
same,NF-kB SEAP reporter activity,RAW-Dual [2]; [5],1
same,NF-kB SEAP reporter activity,RAW-Dual [2]; [6],1.01
O=C(O)Cc1ccc(-c2ccccc2)cc1,NF-kB SEAP reporter activity,RAW-Dual [3]; agonist: Imiquimod (TLR7) […],1.15
same,NF-kB SEAP reporter activity,RAW-Dual [3]; agonist: MPLA (TLR4) […],1.04
CCN(CC)CC#CCOC(=O)C(O)(c1ccccc1)C1CCCCC1.Cl (stereo unspecified) (library stock concentration (final ~1000-fold dilution): 10 mM),NF-kB SEAP reporter activity,RAW-Dual [2]; agonist: LPS (TLR4) 0.1 ug/mL,2.01
same,NF-kB SEAP reporter activity,RAW-Dual [2]; [4],0.958
same,NF-kB SEAP reporter activity,RAW-Dual [2]; [5],0.963
same,NF-kB SEAP reporter activity,RAW-Dual [2]; [6],1.3
CCN(CC)CC#CCOC(=O)C(O)(c1ccccc1)C1CCCCC1.Cl (stereo unspecified),NF-kB SEAP reporter activity,RAW-Dual [3]; agonist: Imiquimod (TLR7) […],1.75
same,NF-kB SEAP reporter activity,RAW-Dual [3]; agonist: MPLA (TLR4) […],1.46
Cc1nnc(C(=O)NC(C)(C)c2nc(C(=O)NCc3ccc(F)cc3)c(O)c(=O)n2C)o1 (library stock concentration (final ~1000-fold dilution): 10 mM),NF-kB SEAP reporter activity,RAW-Dual [2]; agonist: LPS (TLR4) 0.1 ug/mL,1.03 and 0.963
same,NF-kB SEAP reporter activity,RAW-Dual [2]; [4],1.01 and 1.12
same,NF-kB SEAP reporter activity,RAW-Dual [2]; [5],1.07 and 1.12
same,NF-kB SEAP reporter activity,RAW-Dual [2]; [6],1.07 and 1.25
Cc1nnc(C(=O)NC(C)(C)c2nc(C(=O)NCc3ccc(F)cc3)c(O)c(=O)n2C)o1,NF-kB SEAP reporter activity,RAW-Dual [3]; agonist: Imiquimod (TLR7) […],0.948
CC(=O)OC1CC2(C)C(CC(O)C3C4(C)CCC(O)C(C)C4CCC32C)/C1=C(\CCC=C(C)C)C(=O)O (stereo unspecified),NF-kB SEAP reporter activity,RAW-Dual [3]; agonist: Imiquimod (TLR7) […],0.937
same,NF-kB SEAP reporter activity,RAW-Dual [3]; agonist: MPLA (TLR4) […],0.977
